Hit rate of the full screen: of about 45,000 compounds, about 65 (0.1%) were called active. The inconclusive results got no clear call from the source; some entries with a clear call stand among them for comparison. Calls follow the shape of the dose curve; as a rule, active = well fitted activation curve with a large enough effect; inconclusive = small, poorly fitted or top-dose-only effect; inactive = no such curve, though single readings can be large or run the other way. Where the call is inconclusive, the potency comes from a doubtful curve fit.
molecular target: Galactocerebrosidase (Homo sapiens) (UniProt P54803); assay: A Novel Cell-Based Assay to Identify Small Molecules for B -Galactocerebrosidase; details: 145M-Twi-hGALC-G270D cells, HMU-beta-Gal fluorescence, 48 h; activation: at 57.5 µM (top of the series); also: nearly all actives have a fitted effect of over 65% in size; as to activation: 0% is about no effect
Sequence of UniProt P54803 (P54803 whole entry, looked up): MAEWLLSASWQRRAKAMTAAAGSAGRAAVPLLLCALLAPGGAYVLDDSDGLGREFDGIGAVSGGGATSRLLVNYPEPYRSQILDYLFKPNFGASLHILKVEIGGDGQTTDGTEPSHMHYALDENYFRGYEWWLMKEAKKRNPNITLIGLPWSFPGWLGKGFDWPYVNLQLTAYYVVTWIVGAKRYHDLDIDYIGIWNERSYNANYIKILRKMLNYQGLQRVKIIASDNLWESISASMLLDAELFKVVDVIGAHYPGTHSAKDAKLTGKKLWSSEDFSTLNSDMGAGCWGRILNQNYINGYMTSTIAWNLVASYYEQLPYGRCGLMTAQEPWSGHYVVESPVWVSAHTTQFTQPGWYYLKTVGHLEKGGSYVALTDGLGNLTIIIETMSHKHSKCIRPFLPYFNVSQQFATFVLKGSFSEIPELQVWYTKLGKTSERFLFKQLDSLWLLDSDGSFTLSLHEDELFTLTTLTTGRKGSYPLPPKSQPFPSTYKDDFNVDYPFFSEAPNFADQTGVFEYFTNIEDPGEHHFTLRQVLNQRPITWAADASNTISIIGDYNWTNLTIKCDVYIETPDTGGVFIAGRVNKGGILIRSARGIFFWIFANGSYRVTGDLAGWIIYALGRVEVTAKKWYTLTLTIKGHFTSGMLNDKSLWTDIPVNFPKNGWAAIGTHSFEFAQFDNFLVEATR
Method in brief: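 qHTS, 1536-well; 145M-Twi-hGALC-G270D cells (WT line also made) in DMEM/F12 + 10% FBS; compound incubation on live cells; HMU-β-gal 0.1 mM final, pH 5.2, NaTC; carbonate stop; fluorescence increase = enhanced residual activity.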
Potency is read from the fitted curve at half-maximal effect; tags tell the direction and shape of the fitted curve.

Potency, active:
COc1ccccc1CCNC(=O)C(=O)NCC(c1ccco1)S(=O)(=O)c1ccc(C)cc1 (configuration not stated) 7.94 µM, O=C(Nc1ccc(F)cc1F)c1cc2c(=O)n3ccccc3nc2s1 22.4 µM, COCCCn1c(=N)c(C(=O)NC2CCCC2)cc2c(=O)n3cccc(C)c3nc21 25.1 µM, CCCCN(CC)C(=O)c1cc2c(=O)n3cccc(C)c3nc2s1 25.1 µM, COc1ccc(C(=O)/C=C/c2cn(CC(O)CN(CC(C)C)CC(C)C)c3ccccc23)cc1 (configuration not stated) 22.4 µM

Potency, inconclusive:
Cc1ccc(CNC(=O)CCCN2C(=O)c3cccnc3Oc3ccc(Cl)cc32)cc1 1.41 µM [activator, single point], COc1ccc(C(=O)Nc2c(C(=O)c3ccccc3)oc3ccccc23)cc1 25.1 µM [activator, single point], CCc1ccc(-c2nc(-c3cc4ccccc4oc3=O)sc2C)cc1 39.8 µM [activator, single point], CC1CCc2noc(NC(=O)c3ccc([N+](=O)[O-])cc3)c2C1 (configuration not stated) 39.8 µM [activator, single point], COc1ccc(NCc2cc3cc4c(cc3n(CC(=O)Nc3ccc(C)c(C)c3)c2=O)OCO4)cc1 39.8 µM [activator, single point], CCc1nn(CC(=O)N(C)Cc2ccccc2)c(=O)c2cc3sccc3n12 0.1 µM [activator, full curve, poor fit], CCC(=O)N1CCc2cc(Br)cc(S(=O)(=O)N3CCCC(C(=O)Nc4ccc(OC)c(Cl)c4)C3)c21 (configuration not stated) 35.5 µM [activator, partial curve], COc1ccccc1-c1noc(-c2ccc(N3CCN(C)CC3)c([N+](=O)[O-])c2)n1 0.891 µM [activator, full curve], COCCCn1c(=N)c(C(=O)NCc2cccnc2)cc2c(=O)n3cccc(C)c3nc21 7.08 µM [activator, single point], Cc1ccc(NC(=O)c2oc3ccc(S(=O)(=O)N4CCCCCC4)cc3c2C)c(C)c1 39.8 µM [activator, single point], COc1cccc(-c2noc(COc3ccc(C(C)(C)C)cc3)n2)c1 25.1 µM [activator, single point], CCOC(=O)c1c(N)n(-c2ccc(OCC)cc2)c2nc3ccccc3nc12 35.5 µM [activator, single point], CCc1ccc(NCc2cc3cc(OC)c(OC)cc3n(CC(=O)Nc3ccc(F)cc3)c2=O)cc1 25.1 µM [activator, single point], CCOc1ccc(CNC(=O)c2cc3c(s2)-c2ccccc2OC3)cc1 7.08 µM [activator, single point], CCOC(=O)c1cnc2c(C)cccc2c1NCCc1ccc(OC)c(OC)c1 31.6 µM [activator, single point], O=C(NCc1ccc(Cl)cc1)C1CCN(S(=O)(=O)c2ccc3c(c2)CCCN3C(=O)C2CCC2)CC1 28.2 µM [activator, single point], O=C(Nc1cc(-c2ccc(Cl)cc2)no1)c1ccc(F)cc1 39.8 µM [activator, single point], COc1ccc(/C=C/c2nc(C#N)c(NCc3ccc(C)cc3)o2)cc1OC 6.31 µM [activator, single point], COc1cccc(/C=C/c2nc(C#N)c(NC3CCCCC3)o2)c1 39.8 µM [activator, single point], O=C(Nc1ccc(F)cc1F)c1cnn(-c2ccc(F)cc2)c1-n1cccc1 39.8 µM [activator, single point], CCOC(=O)N1CCc2c(sc(NCc3cccs3)c2C(=O)Nc2ccc(OC)cc2OC)C1 0.158 µM [activator, full curve, poor fit], Cn1c2ccccc2c2cnn(CC(=O)Nc3ccccc3F)c(=O)c21 0.178 µM [activator, full curve, poor fit], COc1ccc(CNc2oc(/C=C/c3cccc(OC)c3)nc2C#N)cc1 39.8 µM [activator, single point], CCCOc1ccc(C2CC(=O)Nc3c2c(C)nn3-c2nncc(-c3cccc(OC)c3)n2)cc1OC (configuration not stated) 0.199 µM [activator, full curve, poor fit], Cc1cc(N2CCC(C)CC2)nc2ccc(NC(=O)Cc3c(F)cccc3Cl)cc12 28.2 µM [activator, single point], COC(=O)c1cccc(NC2=NS(=O)(=O)c3ccccc32)c1 31.6 µM [activator, single point], COc1ccc(OC)c(-c2noc(N3CCN(c4ccc(C(C)=O)cc4)CC3)n2)c1 0.199 µM [activator, full curve, poor fit], COc1ccc(OC)c(C2Nc3c(C)cc(C)cc3-c3cc(C)nn32)c1 (configuration not stated) 31.6 µM [activator, partial curve], COc1cccc(/C=C/c2nc(C#N)c(NCCc3ccc(OC)c(OC)c3)o2)c1 39.8 µM [activator, single point], Cc1ccc(NC(=O)CCS(=O)(=O)c2cccc3nonc23)cc1Cl 0.282 µM [activator, full curve, poor fit], CCC(=O)N1CCCc2cc(S(=O)(=O)N3CCC(C(=O)Nc4ccc(F)c(F)c4)CC3)ccc21 39.8 µM [activator, single point], Cc1ccc(-c2cc(NC(=O)C(C)Oc3ccc(C)c(C)c3)on2)cc1 (configuration not stated) 1.78 µM [activator, single point], CCOc1ccccc1NC(=O)c1sc2nc(-c3ccc(OC)cc3)ccc2c1N 1.78 µM [activator, full curve, poor fit], COc1ccc(OCC(=O)Nc2ccc(O)c(-c3nc4ccccc4s3)c2)cc1 22.4 µM [activator, partial curve], CCc1ccc(NC(=O)CSc2nc3ccccc3nc2Cc2ccccc2OC)cc1 50.1 µM [activator, partial curve, poor fit], CCOC(=O)c1ccc(NC(=O)c2cc3c([nH]c2=O)CC(c2ccccc2)CC3=O)cc1 (configuration not stated) 35.5 µM [activator, single point], Cc1ccc(NC(=O)NCc2c(-n3cccc3)sc3c2CCCC3)c(Cl)c1 39.8 µM [activator, single point], N#Cc1ccccc1NC(=O)c1cc2c(=O)n3ccccc3nc2s1 1 µM [activator, full curve], Cc1nc2c(C(=O)NCCc3ccccc3)cnn2c(C)c1Cc1c(F)cccc1Cl 31.6 µM [activator, single point]

activation, inactive:
CCn1nnc2cc(C(=O)Nc3ccc(C)c(Cl)c3)ccc21 -23.9%, CCCCOc1cccc(C(=O)N(Cc2ccc(C)o2)c2ccccn2)c1 -35.4%, CCOC(=O)c1c(C)oc2ncnc(Nc3ccc(OC)c(OC)c3)c12 -9.81%, CCOC(=O)CC(NC(=O)Cn1nnc(-c2ccc(Cl)cc2)n1)c1ccc(OC)cc1 (configuration not stated) -19.4%, COc1cc(/C=C(\C#N)c2nc3ccc(C)cc3[nH]2)ccc1OC(C)C -8.35%, COc1cccc(C(=O)NC(c2ccc(Cl)cc2)c2cc(Cl)c3cccnc3c2O)c1 (configuration not stated) -13.8%, Cc1cc(O)c(-c2ccnc3cc(-c4ccccc4)nn23)cc1Cl -5.17%, Cc1oc2ncn(C)c(=O)c2c1C(=O)N1CCN(c2cccc(C(F)(F)F)c2)CC1 8.69%, COc1ccccc1C(=O)NCC(c1ccc(N(C)C)cc1)N1CCc2ccccc21 (configuration not stated) -14.7%, COc1ccc(N2CC(NC(=O)c3ccco3)CC2=O)cc1OC (configuration not stated) 2.89%, Cc1ccc(Nc2ccc(N3CCN(C(=O)c4ccc([N+](=O)[O-])cc4)CC3)nn2)cc1 -14.8%, CCn1c(=O)cc(OCC(=O)N2CCN(c3ccc(OC)cc3)CC2)c2ccccc21 -3.29%, CC(=O)c1ccc(NC(=O)CC2Nc3cc(C)c(C)cc3NC2=O)cc1 (configuration not stated) -9.94%, Cc1ccccc1C(=O)N1CC(=O)Nc2ccc(Cl)cc2C1c1ccccc1 (configuration not stated) -12.3%, CCOc1ccc(N(C)S(=O)(=O)c2ccc3[nH]cc(C(=O)NCc4ccccc4)c(=O)c3c2)cc1 -20.6%, COc1ccc(CNC(=O)Cn2c(=O)nc(-c3ccccc3)c3ccccc32)cc1OC -12.1%, CC(=O)c1ccc(N2CCN(C(=O)C3CCCN(S(=O)(=O)c4ccc(Br)s4)C3)CC2)cc1 (configuration not stated) -2.06%, COc1ccc(Cn2c(C(=O)O)c(CNCc3ccccc3F)c3ccc(OC)cc32)cc1 -6.01%, COc1ccc(C(=O)N2c3ccccc3C(C)(c3ccc(Cl)cc3)CC2(C)C)cc1 (configuration not stated) -45.8%, CN1C(=O)c2ccccc2Sc2ccc(NC(=O)COc3ccccc3)cc21 -7.42%, CCOC(=O)c1c(NC(=O)/C=C/c2ccc(OC)c(OC)c2)sc(C(C)=O)c1C 9.63%

activation, inconclusive:
COc1ccc(N2CC(NC(=O)COc3ccccc3C)CC2=O)cc1OC (configuration not stated) 33.8% [activator], COc1ccc2oc(=O)cc(CN3CCN(C(=O)c4ccccc4Br)CC3)c2c1 41.7% [activator]
